First the molecules themselves.
B1: PhoQ; a variant is named by its letters at X, in order, P23837 (parent)
chain: MKKLLRLFFPLSLRVRFLLATAAVVLVLSLAYGMVALIGYSVSFDKTTFRLLRGESNLFYTLAKWENNKLHVELPENIDKQSPTMTLIYDENGQLLWAQRDVPWLMKMIQPDWLKSNGFHEIEADVNDTSLLLSGDHSIQQQLQEVREDDDDAEMTHSVAVNVYPATSRMPKLTIVVVDTIPVELKSSYMVWSWFIYVLSANLLLVIPLLWVAAWWSLRPIEALAKEVRELEEHNRELLNPATTRELTSLVRNLNRLLKSERERYDKYRTTLTDLTHSLKTPLXXLQXXLRSLRSEKMSVSDAEPVMLEQISRISQQIGYYLHRASMRGGTLLSRELHPVAPLLDNLTSALNKVYQRKGVNISLDISPEISFVGEQNDFVEVMGNVLDNACKYCLEFVEISARQTDEHLYIVVEDDGPGIPLSKREVIFDRGQRVDTLRPGQGVGLAVAREITEQYEGKIVAGESMLGGARMEVIFGRQHSAPKDE

The values that follow come from a collection of fitness landscapes (doi:10.1126/science.1257360).

The list shows a part of the results.

The variants in the experiment derive from B1. Put plainly: enrichment ratio after two sorts for PhoP signalling (ratio (wild type AVST 3.29)); higher = more functional. The settings on record: with PhoP (E. coli).
Take YPWL: the enrichment ratio was ≤ 0.25.

IDVP: the enrichment ratio is ≤ 0.25.

LWTP: the enrichment ratio is ≤ 0.25.

With YNPP, the enrichment ratio was ≤ 0.25.

Take VANT: the enrichment ratio is ≤ 0.25.

For VWKP, the enrichment ratio is ≤ 0.25.

With SRAV, the enrichment ratio is ≤ 0.25.

On to EMHL, for which the enrichment ratio was ≤ 0.25.

In the case of IESS, the enrichment ratio is ≤ 0.25.

For PDTF, the enrichment ratio is ≤ 0.25.

With DYQY, the enrichment ratio was ≤ 0.25.

IDCA: the enrichment ratio is ≤ 0.25.

Take RREL: the enrichment ratio is ≤ 0.25.

With YAGP, the enrichment ratio is ≤ 0.25.

As to QHKD, the enrichment ratio is ≤ 0.25.

For the variant RMHC, the enrichment ratio was ≤ 0.25.

As for RWAN, the enrichment ratio is ≤ 0.25.

Regarding YNTQ, the enrichment ratio was ≤ 0.25.

With LHNC, the enrichment ratio was ≤ 0.25.

In the case of IKQD, the enrichment ratio was ≤ 0.25.

Consider DYFD, for which the enrichment ratio is ≤ 0.25.

YFTD: the enrichment ratio is ≤ 0.25.

With NTEI, the enrichment ratio is ≤ 0.25.

For the variant ICWP, the enrichment ratio is ≤ 0.25.

GECP: the enrichment ratio is ≤ 0.25.

For DTMG, the enrichment ratio is ≤ 0.25.

Turning to IACI, the enrichment ratio was ≤ 0.25.

SRPD: the enrichment ratio was ≤ 0.25.

As for NLCT, the enrichment ratio is ≤ 0.25.

For TQPG, the enrichment ratio was determined as 1.04.

On to HSNQ, for which the enrichment ratio is ≤ 0.25.

Consider NCIG, for which the enrichment ratio was ≤ 0.25.

Consider TIFF, for which the enrichment ratio is ≤ 0.25.

Regarding YVVS, the enrichment ratio is ≤ 0.25.

On to PSMC, for which the enrichment ratio was ≤ 0.25.

In the case of HALG, the enrichment ratio was determined as 0.815.

Regarding NGCR, the enrichment ratio was ≤ 0.25.

For the variant NKKN, the enrichment ratio was ≤ 0.25.

As for VEDF, the enrichment ratio was ≤ 0.25.

With MTDD, the enrichment ratio is ≤ 0.25.

On to WLKC, for which the enrichment ratio is ≤ 0.25.

With WNLT, the enrichment ratio was ≤ 0.25.

With FCPK, the enrichment ratio was ≤ 0.25.

Regarding SVFY, the enrichment ratio was ≤ 0.25.

For KMIT, the enrichment ratio was ≤ 0.25.

As to GAVF, the enrichment ratio is ≤ 0.25.

As for WIHN, the enrichment ratio is ≤ 0.25.

Turning to FNKN, the enrichment ratio is ≤ 0.25.

For the variant NIAW, the enrichment ratio is ≤ 0.25.

Turning to IRNF, the enrichment ratio was ≤ 0.25.

With DHVW, the enrichment ratio was ≤ 0.25.

On to HYWH, for which the enrichment ratio is ≤ 0.25.

With HHGP, the enrichment ratio was ≤ 0.25.

As for AKKP, the enrichment ratio was ≤ 0.25.

TVHL: the enrichment ratio was determined as 3.57.

As to YFDA, the enrichment ratio is ≤ 0.25.

Take KLFH: the enrichment ratio was ≤ 0.25.

Regarding PTMV, the enrichment ratio is ≤ 0.25.

As to SKHV, the enrichment ratio is ≤ 0.25.

On to WKPT, for which the enrichment ratio was ≤ 0.25.

As for DCQM, the enrichment ratio is ≤ 0.25.

On to MAAN, for which the enrichment ratio is 14.7.

For the variant ITFG, the enrichment ratio is ≤ 0.25.

Turning to SCLT, the enrichment ratio worked out at 13.3.

In the case of KLMI, the enrichment ratio is ≤ 0.25.

Turning to RCSG, the enrichment ratio is ≤ 0.25.

As to FCVQ, the enrichment ratio was ≤ 0.25.

Turning to PNFY, the enrichment ratio is ≤ 0.25.

Consider QPYF, for which the enrichment ratio is ≤ 0.25.

IKPT: the enrichment ratio was ≤ 0.25.

For AMPS, the enrichment ratio is ≤ 0.25.

On to IRYS, for which the enrichment ratio was ≤ 0.25.

As for KIWI, the enrichment ratio was ≤ 0.25.

On to HWNW, for which the enrichment ratio is ≤ 0.25.

In the case of MKMG, the enrichment ratio is ≤ 0.25.

Turning to AKGI, the enrichment ratio was ≤ 0.25.

Regarding HDCM, the enrichment ratio was ≤ 0.25.

As to LFTW, the enrichment ratio is ≤ 0.25.

As to AGRH, the enrichment ratio is ≤ 0.25.

For the variant NGPW, the enrichment ratio is ≤ 0.25.

With FKYK, the enrichment ratio was ≤ 0.25.

With HCSL, the enrichment ratio is ≤ 0.25.

For LEIV, the enrichment ratio is ≤ 0.25.

Consider WGCR, for which the enrichment ratio is ≤ 0.25.

Turning to LCHC, the enrichment ratio was ≤ 0.25.

Consider HTTQ, for which the enrichment ratio is ≤ 0.25.

Turning to PEAV, the enrichment ratio was ≤ 0.25.

As to FTGP, the enrichment ratio was ≤ 0.25.

On to YHPP, for which the enrichment ratio was ≤ 0.25.

Take IYHS: the enrichment ratio is ≤ 0.25.

For PFAM, the enrichment ratio was ≤ 0.25.

For the variant IRVY, the enrichment ratio was ≤ 0.25.

Take KCKV: the enrichment ratio was ≤ 0.25.

On to MMQA, for which the enrichment ratio is ≤ 0.25.

Consider RGCD, for which the enrichment ratio is ≤ 0.25.

In the case of HDFV, the enrichment ratio is ≤ 0.25.

For the variant TPPR, the enrichment ratio is ≤ 0.25.

Turning to YAHT, the enrichment ratio was ≤ 0.25.

As for WAAK, the enrichment ratio is ≤ 0.25.

For the variant IQHR, the enrichment ratio is ≤ 0.25.

For the variant RRKN, the enrichment ratio is ≤ 0.25.

DWRS: the enrichment ratio was ≤ 0.25.

In the case of GHNW, the enrichment ratio is ≤ 0.25.

With YGKT, the enrichment ratio is ≤ 0.25.

PTLV: the enrichment ratio was ≤ 0.25.

With RNYE, the enrichment ratio is ≤ 0.25.

On to VEPQ, for which the enrichment ratio was ≤ 0.25.

For NCIR, the enrichment ratio was ≤ 0.25.

Turning to HLTM, the enrichment ratio was ≤ 0.25.

Regarding KVLI, the enrichment ratio is ≤ 0.25.

Consider QHRC, for which the enrichment ratio is ≤ 0.25.

On to FLID, for which the enrichment ratio is ≤ 0.25.

Turning to PLRY, the enrichment ratio was ≤ 0.25.

For the variant WCIK, the enrichment ratio was ≤ 0.25.

For RLAH, the enrichment ratio was ≤ 0.25.

On to AQSE, for which the enrichment ratio amounted to 2.99.

In the case of AFPF, the enrichment ratio is ≤ 0.25.

Take FRVE: the enrichment ratio is ≤ 0.25.

On to DNQF, for which the enrichment ratio is ≤ 0.25.

Regarding PYAD, the enrichment ratio was ≤ 0.25.

As to MPIF, the enrichment ratio was ≤ 0.25.

With VVLG, the enrichment ratio worked out at 1.27.

Consider ICER, for which the enrichment ratio is ≤ 0.25.

On to DCTD, for which the enrichment ratio is ≤ 0.25.

ETGR: the enrichment ratio was ≤ 0.25.

LLWQ: the enrichment ratio was ≤ 0.25.

Take NSYH: the enrichment ratio is ≤ 0.25.

Regarding PQEP, the enrichment ratio was ≤ 0.25.

For the variant VMQS, the enrichment ratio is ≤ 0.25.

For the variant WKFM, the enrichment ratio was ≤ 0.25.

Turning to WPLC, the enrichment ratio is ≤ 0.25.

Regarding QETG, the enrichment ratio was ≤ 0.25.

In the case of NRTS, the enrichment ratio was ≤ 0.25.

SKYP: the enrichment ratio is ≤ 0.25.

Take AEIW: the enrichment ratio is ≤ 0.25.

In the case of YEMT, the enrichment ratio turned out to be 1.98.

For the variant IHFK, the enrichment ratio was ≤ 0.25.

SYLV: the enrichment ratio turned out to be 0.334.

As to TVHV, the enrichment ratio turned out to be 2.67.

For the variant FNMQ, the enrichment ratio was ≤ 0.25.

For VHVC, the enrichment ratio was ≤ 0.25.

As to SHAW, the enrichment ratio was ≤ 0.25.

As for HCLS, the enrichment ratio is ≤ 0.25.

As to RVDC, the enrichment ratio is ≤ 0.25.

With NWTF, the enrichment ratio was ≤ 0.25.

Take EVKR: the enrichment ratio was ≤ 0.25.

In the case of NCFA, the enrichment ratio was ≤ 0.25.

For the variant IWSN, the enrichment ratio was ≤ 0.25.

QKQI: the enrichment ratio is ≤ 0.25.

QTGM: the enrichment ratio stood at 12.

With LPSL, the enrichment ratio is ≤ 0.25.

Take PREQ: the enrichment ratio was ≤ 0.25.

Regarding KVDW, the enrichment ratio is ≤ 0.25.
